Laboratory results published in the supplement of paper PMC7826260.
The other results are listed elsewhere or left out. One pool of 16,384 single-stranded DNAs met each Rep nickase domain in vitro (1 h at 37 °C, 3 µM enzyme); the outer parts of the 90-letter strands are left off. The score is log2 (uncut reads / reads without enzyme); the lower, the more was cut; hits are not called. Reads are scaled to the total; values above 0 arise when much of the pool is cut.

Columns and labels:
Assay in all cases: uncleaved DNA left, log2 of reads against the no-enzyme library (log2 ratio); higher = less cleavage (more negative = more Rep cleavage of the k-mer); sequences stand for … in CTCGTCCG…ACCGGAGA
[1] = test system: T1, Rep nickase domain of Muscovy duck circovirus
T1 sequence (residues 1-111 of Rep, tag left off): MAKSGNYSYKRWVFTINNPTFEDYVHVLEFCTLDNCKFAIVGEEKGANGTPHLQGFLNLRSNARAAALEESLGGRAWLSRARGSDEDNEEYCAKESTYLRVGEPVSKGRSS
Protocol: (§1)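 A pool of 90-nt single-stranded DNAs with seven random bases just before the constant AC of the nick site (name = the seven bases) was cut by 3 µM recombinant His6-SUMO-tagged Rep nickase domain (300 nM DNA, 50 mM HEPES pH 8.0, 50 mM NaCl, 1 mM MnCl2, 1 h, 37 °C, three replicates). Uncut DNA was amplified and sequenced.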

[2] = test system: T2, Rep nickase domain of banana bunchy top virus
T2 sequence (residues 1-94 of Rep, tag left off): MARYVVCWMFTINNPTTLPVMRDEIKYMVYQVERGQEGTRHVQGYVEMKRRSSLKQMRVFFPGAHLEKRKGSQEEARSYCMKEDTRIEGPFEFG
Protocol: as §1

[3] = test system: T3, Rep nickase domain of cabbage leaf curl virus
T3 sequence (residues 1-116 of Rep, tag left off): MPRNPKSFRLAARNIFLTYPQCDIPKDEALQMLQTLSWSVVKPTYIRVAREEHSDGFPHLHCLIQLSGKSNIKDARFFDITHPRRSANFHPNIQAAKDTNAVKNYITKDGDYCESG
Protocol: as §1

[4] = test system: T4, Rep nickase domain of chickpea chlorotic dwarf virus
T4 sequence (residues 1-124 of Rep, tag left off): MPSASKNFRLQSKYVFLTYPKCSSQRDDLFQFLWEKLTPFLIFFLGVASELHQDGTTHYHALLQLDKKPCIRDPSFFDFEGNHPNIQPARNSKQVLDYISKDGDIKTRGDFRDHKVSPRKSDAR
Protocol: as §1

[5] = test system: T5, Rep nickase domain of faba bean necrotic yellows virus
T5 sequence (residues 1-98 of Rep, tag left off): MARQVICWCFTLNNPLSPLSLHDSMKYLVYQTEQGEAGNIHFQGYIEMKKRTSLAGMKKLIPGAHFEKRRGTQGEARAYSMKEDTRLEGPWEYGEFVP
Protocol: as §1

[6] = test system: T6, Rep nickase domain of maize striate mosaic virus
T6 sequence (residues 1-117 of Rep, tag left off): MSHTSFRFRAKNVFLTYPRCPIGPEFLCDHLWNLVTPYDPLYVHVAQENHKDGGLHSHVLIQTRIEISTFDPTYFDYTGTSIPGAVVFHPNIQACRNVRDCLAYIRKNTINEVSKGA
Protocol: as §1

[7] = test system: T7, Rep nickase domain of porcine circovirus 2
T7 sequence (residues 2-116 of Rep, tag left off): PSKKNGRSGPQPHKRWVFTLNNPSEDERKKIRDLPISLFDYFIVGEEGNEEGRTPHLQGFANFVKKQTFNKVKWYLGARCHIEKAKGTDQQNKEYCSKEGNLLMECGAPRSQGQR
Protocol: as §1

[8] = test system: T8, Rep nickase domain of tomato golden mosaic virus
T8 sequence (residues 1-124 of Rep, tag left off): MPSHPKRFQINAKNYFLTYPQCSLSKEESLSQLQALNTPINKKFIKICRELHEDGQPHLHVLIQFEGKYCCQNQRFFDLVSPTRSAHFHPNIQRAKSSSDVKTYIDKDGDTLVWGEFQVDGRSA
Protocol: as §1

[9] = test system: T9, Rep nickase domain of tomato yellow leaf curl virus
T9 sequence (residues 1-136 of Rep, tag left off): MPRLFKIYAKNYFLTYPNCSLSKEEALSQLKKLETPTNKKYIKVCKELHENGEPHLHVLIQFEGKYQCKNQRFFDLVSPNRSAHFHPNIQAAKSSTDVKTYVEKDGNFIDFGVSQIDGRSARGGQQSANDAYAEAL
Protocol: as §1

[10] = test system: T10, Rep nickase domain of wheat dwarf virus
T10 sequence (residues 1-137 of Rep, tag left off): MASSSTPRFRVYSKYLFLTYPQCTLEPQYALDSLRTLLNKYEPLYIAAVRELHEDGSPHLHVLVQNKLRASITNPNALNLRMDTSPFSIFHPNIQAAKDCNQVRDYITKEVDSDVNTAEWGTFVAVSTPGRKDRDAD
Protocol: as §1

Sequence	uncleaved DNA left (log2) [1]	uncleaved DNA left (log2) [2]	uncleaved DNA left (log2) [3]	uncleaved DNA left (log2) [4]	uncleaved DNA left (log2) [5]	uncleaved DNA left (log2) [6]	uncleaved DNA left (log2) [7]	uncleaved DNA left (log2) [8]	uncleaved DNA left (log2) [9]	uncleaved DNA left (log2) [10]
AGTTCGA	0.0516	-0.0184	-0.394	-0.662	0.0394	-1.05	-0.0786	-0.0715	0.0323	-0.0688
GAGGCTA	-0.0101	0.0589	0.521	1.04	-0.0771	1.77	-0.00951	0.0319	-0.0787	0.0407
GTTTCGC	0.0421	-0.018	0.0974	0.353	0.0245	0.157	0.12	-0.0994	0.0358	0.0523
AGAGAGA	0.063	0.0565	0.307	0.843	0.0333	0.495	0.162	0.0747	-0.0331	0.0416
TCCGGGT	0.0477	0.00742	0.363	0.751	-0.063	1.55	0.141	0.0975	0.00694	-0.104
ATAGGCA	0.0708	0.0546	0.0424	0.0395	0.131	-0.619	0.0671	0.104	0.0605	0.0406
GTAAACC	0.00944	0.088	0.27	0.64	-0.0193	1.38	0.00414	0.0867	-0.00747	0.0553
ACTATCG	-0.0593	0.000732	-0.756	0.07	-0.0472	-0.792	0.0911	-0.122	-0.148	-0.12
GACTTCA	-0.131	-0.0669	0.211	-0.523	-0.0603	0.843	-1.95	-0.0709	-0.0621	-0.0289
AATACCT	-0.315	-0.746	-0.953	-2.87	-0.0116	-0.416	-2.95	-0.11	-0.17	-0.171
AGTCGGA	-0.0487	-0.0733	0.0929	0.319	-0.0829	-0.111	-0.246	0.0513	0.00136	-0.0462
CGATCGT	0.0612	0.0611	-0.161	-0.124	-0.0157	-0.488	-0.00255	0.0953	0.0414	0.0386
GTTCGAC	0.0419	-0.0628	0.346	0.793	-0.0311	1.34	0.0885	0.0851	-0.00306	-0.0617
GTTAACC	-0.0741	0.0737	0.189	0.665	-0.0474	1.44	-0.0599	0.0153	0.0477	-0.022
CCCGGTA	0.00631	0.0189	0.226	0.0872	0.112	0.368	-0.0249	0.0916	0.0886	0.0146
TTCGAGG	0.0731	-0.021	0.508	1.26	0.0661	1.75	0.00779	0.0456	-0.00804	0.0718
CGCTGAG	0.0429	-0.14	-0.302	0.139	0.247	-0.505	0.368	0.184	0.152	0.265
CTGGGCT	0.174	0.0505	0.199	0.299	0.168	0.133	0.213	0.0277	0.107	0.0973
TGTTCGC	0.0195	-0.0405	-0.253	-0.451	-0.0719	-0.815	0.031	-0.0602	0.0132	-0.0345
CGTATGA	0.164	0.0732	0.137	0.339	0.018	0.162	0.158	-0.00571	0.0911	0.135

Sequence	uncleaved DNA left (log2) [1]	uncleaved DNA left (log2) [2]	uncleaved DNA left (log2) [3]	uncleaved DNA left (log2) [4]	uncleaved DNA left (log2) [5]	uncleaved DNA left (log2) [6]	uncleaved DNA left (log2) [7]	uncleaved DNA left (log2) [8]	uncleaved DNA left (log2) [9]	uncleaved DNA left (log2) [10]
ACCCGTT	0.0162	0.123	-0.163	-1.5	0.0738	-0.535	-0.0849	0.196	-0.0614	0.0931
CGAAGAA	-0.0316	-0.0347	0.0615	0.00871	-0.00457	-0.468	-0.112	-0.0473	-0.113	-0.0218
GTCATTT	-0.019	0.132	0.255	0.619	0.00636	1.57	-0.000488	0.0914	0.162	0.0122
AAGCTAG	0.218	0.118	0.187	0.836	0.0666	0.554	0.32	0.219	-0.0551	0.155
TCATGTA	-0.248	-0.0468	-0.168	-0.94	-0.0545	-0.983	-0.415	0.0269	0.0267	-0.118
TAAAGTA	0.0219	-0.0489	-2.13	-2.69	-0.0195	-0.917	-0.204	-0.229	-0.0493	-1.72
CCGTTTG	-0.000229	-0.105	-0.493	-0.609	-0.247	-0.827	0.00947	0.00914	-0.0562	-0.189
TAATTGG	-0.0222	-0.0535	-1.02	-0.863	0.0247	-1.2	0.0782	-0.0449	-0.0317	-0.0427
TCGGAAC	-0.00497	-0.0437	0.232	0.255	-0.00567	0.581	0.00166	-0.0395	-0.0653	-0.0218
TTTATTC	0.0118	-0.0104	0.188	-0.0346	0.0691	-0.743	0.0303	-0.131	-0.0106	0.015
TGTCACG	0.0113	-0.0463	-0.789	-0.559	0.134	-1.13	0.191	-0.0665	0.011	0.000405
TTAATAG	0.0811	0.0328	-0.617	-0.596	0.15	-1.19	0.182	0.069	0.0801	0.0858
TGCCTTT	-0.0966	-0.164	-0.0365	-1.71	-0.0426	-0.297	-0.442	-0.348	-0.158	-0.0935
TTGGACA	0.115	0.256	0.847	1.78	0.00364	2.05	0.322	0.0781	0.142	0.233
TCTCTTC	-0.136	-0.198	0.173	-0.393	-0.149	-0.527	-0.0945	-0.156	-0.227	-0.0575
CACGTTG	0.0404	0.00154	-0.372	-0.392	-0.0974	-0.724	0.0736	0.0102	0.0345	-0.247
ATGTTCA	0.0657	-0.00323	-0.0374	-1.18	0.137	-0.569	-0.461	0.0571	0.0516	-0.0045
GCAGCAT	0.0983	0.153	0.364	0.928	0.0596	0.43	0.218	0.116	0.101	0.111
GGGGCCA	-0.0441	0.0556	0.853	1.88	-0.104	2.21	0.118	0.0112	0.00212	0.103
TTAGTAG	0.00573	-0.0904	-0.564	-0.947	0.0926	-1.31	0.13	-0.0781	0.0164	-0.105

Sequence	uncleaved DNA left (log2) [1]	uncleaved DNA left (log2) [2]	uncleaved DNA left (log2) [3]	uncleaved DNA left (log2) [4]	uncleaved DNA left (log2) [5]	uncleaved DNA left (log2) [6]	uncleaved DNA left (log2) [7]	uncleaved DNA left (log2) [8]	uncleaved DNA left (log2) [9]	uncleaved DNA left (log2) [10]
CCGGCCA	0.111	0.0633	0.119	-0.105	0.055	0.106	0.0675	0.108	0.128	0.0775
CTGACGT	0.0482	0.0493	0.0484	0.128	-0.041	-0.257	0.0747	0.000796	0.0203	0.0812
CGCGGTT	0.204	-0.0107	-0.0253	-0.591	0.096	-0.131	-0.0352	0.18	0.0912	-0.0323
CGCACAT	0.0952	-0.074	0.403	0.77	-0.118	1.07	0.105	-0.185	0.0681	0.0968
GTGTTAA	0.171	0.195	0.409	0.915	0.00265	1.89	0.155	0.159	0.0969	0.179
TGCGTGG	0.0882	-0.00391	0.0706	0.225	-0.0369	0.484	0.0849	0.0702	0.0406	-0.133
CGCTGAT	-0.0601	-0.213	0.0323	0.534	-0.0437	0.706	-0.62	-0.122	-0.0347	0.0183
CCGTGGC	0.0643	-0.181	-0.0645	-0.28	-0.075	-0.451	0.134	-0.0597	0.059	-0.0643
GAACAAT	0.124	0.0618	0.555	0.569	0.0195	1.7	-0.009	0.0114	0.0451	0.221
GTCTCGG	0.0383	0.121	0.428	1.18	-0.0402	1.91	0.113	0.166	-0.0296	-0.0359
ATCTCGC	-0.0197	-0.0579	-0.583	-0.664	-0.0898	-1.07	-0.0201	-0.24	-0.0961	-0.122
AGTGTGG	0.0361	0.0428	-0.168	0.0722	-0.0423	-0.273	0.163	-0.0167	-0.0893	-0.0291
AATAGGA	0.0733	0.0806	0.176	0.484	0.13	-0.158	0.216	0.167	-0.0333	0.0592
AGAGTGC	0.0953	0.0597	-0.407	-0.224	0.119	-0.87	0.194	0.0846	0.174	0.00126
GCCCTTC	-0.0518	0.0264	0.155	0.45	0.000134	0.244	0.132	0.042	0.0707	0.0156
CACACCC	-0.228	-0.223	-0.173	-1.07	-0.181	-0.45	-0.453	-0.228	-0.202	-0.209
CTATTTT	-3.67	-0.341	-2.71	-2.55	0.0775	-1.24	-3.55	-1.43	0.0259	-0.738
GAATACT	-2.93	-1.94	-3.18	-2.74	-0.622	-1.92	-3.26	-2.92	-0.981	-2.87
GTCATTA	0.00654	0.149	0.342	0.902	0.0466	1.73	0.0852	0.0737	0.121	0.047
GAATCCG	-0.0125	-0.0531	-0.846	-0.664	-0.00361	-0.933	0.0994	-0.0308	-0.0592	-0.117
